Experimental data reported in PMC7933334, “The methyltransferase SETD2 couples transcription and splicing by engaging mRNA processing factors through its SHI domain” (Nature Communications, 2021).
No constants are given. Whether binding was seen depends on the method and setting. In cells and extracts the contact can be indirect. Some binding calls cover weakened binding; strength is not graded here.

Assays:
Assay in all cases: co-IP; Halo affinity purification of a Halo-tagged bait expressed in 293T (Magne HaloTag beads, AcTEV elution); endogenous partner detected by western blot; lysate with or without RNase where stated
[1] = biological target: T1, Halo-SETD2 2114–2263 (human) (UniProt Q9BYW2)
T1 sequence: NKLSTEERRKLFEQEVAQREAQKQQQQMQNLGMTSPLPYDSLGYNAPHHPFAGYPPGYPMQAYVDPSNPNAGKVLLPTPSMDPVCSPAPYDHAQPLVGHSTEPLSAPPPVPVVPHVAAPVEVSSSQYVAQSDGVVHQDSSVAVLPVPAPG

[2] = biological target: T2, Halo-SETD2CΔ2164–2213 (human) (UniProt Q9BYW2)
T2 sequence: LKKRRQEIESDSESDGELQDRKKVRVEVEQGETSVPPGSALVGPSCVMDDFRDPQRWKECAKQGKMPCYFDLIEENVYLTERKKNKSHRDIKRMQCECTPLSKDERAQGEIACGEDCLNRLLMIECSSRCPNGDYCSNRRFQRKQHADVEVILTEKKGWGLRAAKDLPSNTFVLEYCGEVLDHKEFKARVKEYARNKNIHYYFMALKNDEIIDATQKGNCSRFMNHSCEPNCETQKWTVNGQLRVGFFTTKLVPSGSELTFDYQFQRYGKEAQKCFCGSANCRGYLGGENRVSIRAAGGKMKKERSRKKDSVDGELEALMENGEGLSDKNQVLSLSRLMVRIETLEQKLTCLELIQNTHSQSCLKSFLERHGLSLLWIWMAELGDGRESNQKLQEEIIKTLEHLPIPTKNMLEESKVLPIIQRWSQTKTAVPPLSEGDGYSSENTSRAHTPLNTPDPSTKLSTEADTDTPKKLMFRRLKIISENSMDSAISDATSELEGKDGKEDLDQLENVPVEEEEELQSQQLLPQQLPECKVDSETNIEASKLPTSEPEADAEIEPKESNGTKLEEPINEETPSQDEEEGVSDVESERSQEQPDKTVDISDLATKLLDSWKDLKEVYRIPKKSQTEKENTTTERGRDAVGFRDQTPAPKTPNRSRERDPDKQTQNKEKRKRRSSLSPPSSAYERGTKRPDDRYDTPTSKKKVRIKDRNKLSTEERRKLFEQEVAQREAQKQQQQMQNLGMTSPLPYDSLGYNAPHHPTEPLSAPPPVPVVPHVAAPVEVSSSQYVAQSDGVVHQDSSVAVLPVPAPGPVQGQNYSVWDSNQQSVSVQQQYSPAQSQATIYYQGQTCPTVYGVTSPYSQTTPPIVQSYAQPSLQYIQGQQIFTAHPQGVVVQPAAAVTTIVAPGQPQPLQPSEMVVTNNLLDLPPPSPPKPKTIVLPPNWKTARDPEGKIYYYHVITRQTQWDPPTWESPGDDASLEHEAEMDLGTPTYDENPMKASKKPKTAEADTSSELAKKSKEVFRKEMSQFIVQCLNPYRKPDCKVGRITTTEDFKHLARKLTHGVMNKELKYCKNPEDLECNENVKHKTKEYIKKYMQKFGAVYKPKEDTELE

[3] = biological target: T3, Halo-SETD2 2264–2564 (human) (UniProt Q9BYW2)
T3 sequence: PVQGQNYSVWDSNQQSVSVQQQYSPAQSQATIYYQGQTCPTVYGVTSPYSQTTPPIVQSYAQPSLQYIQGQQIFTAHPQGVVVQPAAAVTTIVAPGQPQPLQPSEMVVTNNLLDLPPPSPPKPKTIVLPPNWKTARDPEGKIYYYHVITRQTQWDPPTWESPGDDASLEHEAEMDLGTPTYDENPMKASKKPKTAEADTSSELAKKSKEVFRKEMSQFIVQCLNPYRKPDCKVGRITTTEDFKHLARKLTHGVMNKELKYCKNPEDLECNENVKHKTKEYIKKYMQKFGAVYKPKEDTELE

[4] = biological target: T4, Halo-SETD2 1404–2564 (SETD2C) (human) (UniProt Q9BYW2)
T4 sequence: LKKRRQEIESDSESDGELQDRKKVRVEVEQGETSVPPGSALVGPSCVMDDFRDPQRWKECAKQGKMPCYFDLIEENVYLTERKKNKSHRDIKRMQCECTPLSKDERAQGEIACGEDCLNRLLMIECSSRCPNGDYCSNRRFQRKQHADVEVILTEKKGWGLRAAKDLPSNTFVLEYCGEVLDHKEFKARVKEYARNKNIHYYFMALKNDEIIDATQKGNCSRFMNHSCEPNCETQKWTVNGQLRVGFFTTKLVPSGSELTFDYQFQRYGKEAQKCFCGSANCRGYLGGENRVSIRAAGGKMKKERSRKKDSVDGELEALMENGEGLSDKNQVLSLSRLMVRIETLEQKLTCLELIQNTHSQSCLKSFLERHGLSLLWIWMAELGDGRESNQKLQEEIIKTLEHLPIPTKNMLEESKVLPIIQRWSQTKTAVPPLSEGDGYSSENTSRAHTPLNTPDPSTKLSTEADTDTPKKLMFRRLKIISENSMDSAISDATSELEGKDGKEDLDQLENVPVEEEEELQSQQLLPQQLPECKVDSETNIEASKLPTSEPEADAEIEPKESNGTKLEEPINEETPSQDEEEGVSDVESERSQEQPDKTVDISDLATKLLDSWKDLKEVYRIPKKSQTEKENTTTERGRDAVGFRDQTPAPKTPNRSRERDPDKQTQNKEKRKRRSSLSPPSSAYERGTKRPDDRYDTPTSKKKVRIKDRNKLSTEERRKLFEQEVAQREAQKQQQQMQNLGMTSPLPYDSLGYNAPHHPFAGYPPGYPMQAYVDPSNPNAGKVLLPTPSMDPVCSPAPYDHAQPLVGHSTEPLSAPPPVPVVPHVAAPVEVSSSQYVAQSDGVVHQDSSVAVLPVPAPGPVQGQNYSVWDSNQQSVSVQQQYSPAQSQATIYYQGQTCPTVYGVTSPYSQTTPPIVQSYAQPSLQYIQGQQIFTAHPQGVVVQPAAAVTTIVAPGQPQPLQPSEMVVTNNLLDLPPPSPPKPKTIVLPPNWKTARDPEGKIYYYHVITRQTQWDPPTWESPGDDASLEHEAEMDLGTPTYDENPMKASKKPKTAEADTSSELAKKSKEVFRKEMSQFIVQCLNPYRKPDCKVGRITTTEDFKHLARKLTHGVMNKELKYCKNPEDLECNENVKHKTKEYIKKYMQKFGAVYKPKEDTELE

B1: hnRNP L (endogenous) (protein, UniProt P14866 1-589)
chain: MSRRLLPRAEKRRRRLEQRQQPDEQRRRSGAMVKMAAAGGGGGGGRYYGGGSEGGRAPKRLKTDNAGDQHGGGGGGGGGAGAAGGGGGGENYDDPHKTPASPVVHIRGLIDGVVEADLVEALQEFGPISYVVVMPKKRQALVEFEDVLGACNAVNYAADNQIYIAGHPAFVNYSTSQKISRPGDSDDSRSVNSVLLFTILNPIYSITTDVLYTICNPCGPVQRIVIFRKNGVQAMVEFDSVQSAQRAKASLNGADIYSGCCTLKIEYAKPTRLNVFKNDQDTWDYTNPNLSGQGDPGSNPNKRQRQPPLLGDHPAEYGGPHGGYHSHYHDEGYGPPPPHYEGRRMGPPVGGHRRGPSRYGPQYGHPPPPPPPPEYGPHADSPVLMVYGLDQSKMNCDRVFNVFCLYGNVEKVKFMKSKPGAAMVEMADGYAVDRAITHLNNNFMFGQKLNVCVSKQPAIMPGQSYGLEDGSCSYKDFSESRNNRFSTPEQAAKNRIQHPSNVLHFFNAPLEVTEENFFEICDELGVKRPSSVKVFSGKSERSSSGLLEWESKSDALETLGFLNHYQMKNPNGPYPYTLKLCFSTAQHAS
- binding [1]: binds
- binding [2]: no binding
- binding [3]: no binding
- binding [4]: binds
